# Measured values reported in PubChem BioAssay AID924 (National Center for Advancing Translational Sciences (NCATS), 2007).
# Out of some 130,000 compounds screened, about 1,200 (0.92%) were called active. The shares of active, inactive and inconclusive entries below differ from those in the screen. Calls come from the whole dose curve; as a rule, active = well fitted cell-killing curve with a large enough effect; inconclusive = small, poorly fitted or top-dose-only effect; inactive = no such curve, though single readings can be large or run the other way. Where the call is inconclusive, the potency comes from a doubtful curve fit.
# Experiment: qHTS Screen for Compounds that Selectively Target Cancer Cells with p53 Mutations: Cytotoxicity of p53ts Cells at the Permissive Temperature; note: nearly all actives have a fitted effect of over 55% in size;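 for activity change, negative = cytotoxicity: 0% = DMSO and -100% = full killing by reference compound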
# Settings: H1299-p53A138V at 32C, ATP luminescence viability, 24 h; activity change, negative = cytotoxicity: at 46.1 µM (top of the series)
# Summary of the method: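 Viability by ATPlite luminescence after 24 h compound treatment (up to 46 uM) at the permissive 32C. Cells are H1299 carrying p53 A138V. Scale runs from DMSO basal to 100 uM tamoxifen as full kill; AC50 from Hill fits.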
# Potency is the fitted concentration of half-maximal effect; tags give direction and shape of the fitted curve.
SMILES,Potency,"activity change, negative = cytotoxicity"
Cc1cc(CN2CCN(CCC#N)CC2)c(O)c(C2(C)CCCCC2)c1,"inconclusive: 25.1 µM [cytotoxic, single point]",
Cc1ccc(NC(=O)c2nc(S(=O)(=O)Cc3ccc(F)cc3)ncc2Cl)cc1C,active: 15.8 µM,
Cc1cccc(C(=O)Nc2ccc3nc(SCC(=O)N4CCCC4)sc3c2)c1,"inconclusive: 31.6 µM [cytotoxic, single point]",
CC1N(C)c2cc(NC(=O)c3ccco3)ccc2C1(C)C (stereo not drawn),"inconclusive: 12.6 µM [cytotoxic, partial curve]",
Cc1nnc(SC(=O)N2c3ccccc3Sc3ccccc32)s1,"inconclusive: 31.6 µM [cytotoxic, single point]",
CC1CCc2c(sc3nc(SCC(=O)NCc4ccco4)nc(N)c23)C1 (stereo not drawn),"inconclusive: 12.6 µM [cytotoxic, partial curve]",
COc1ccc(S(=O)(=O)Nc2cc(C)on2)cc1OC,inactive,
CC1(C)Cc2c(sc(NC(=O)c3ccco3)c2C#N)CO1,active: 10 µM,
COc1ccc(C(=O)Nc2cccc(OC)c2)cc1,active: 10 µM,
CS(=O)(=O)Nc1ccc(-c2nc3ccccc3s2)cc1,active: 3.98 µM,
CC1C(O)=C(c2nc3ccccc3[nH]2)C(=N)N1c1ccccc1 (stereo not drawn),inactive,
CCOC(=O)c1ccc(NC(=O)C2CCCO2)cc1 (stereo not drawn),"inconclusive: 15.8 µM [cytotoxic, single point]",
CCOC(=O)c1cccc(NS(=O)(=O)c2ccc(-c3coc(C)n3)cc2)c1,inactive,
CC1CCN(C(=O)COC(=O)c2n[nH]c3ccccc23)CC1,"inconclusive: 15.8 µM [cytotoxic, single point]",
COC(=O)c1ccc2c(=O)n(CCc3ccc(S(N)(=O)=O)cc3)c(SCC(=O)C(C)(C)C)nc2c1,inactive,
Cc1cccc(C(=O)N2c3ncnn3C3(CCCCC3)[C@@H]3CCCC[C@@H]32)c1,inactive,
CCOc1ccc(C(=O)Nc2cccc(NC(=O)c3ccc(Cl)cc3Cl)c2)cc1,"inconclusive: 25.1 µM [cytotoxic, single point]",
CCCc1cc(C(=O)Nc2cc(OC)c(Cl)cc2OC)no1,inactive,
Fc1ccc(C(NCCc2ccc(Cl)cc2)c2nnc(-c3ccccc3Cl)o2)cc1 (stereo not drawn),inactive,
Cc1c2cccc(Sc3ccccc3)c2c2c3c(cccc13)[S+](c1ccccc1)C2 (stereo not drawn),,inactive: 4.79% [at 9.22 µM]
CSc1ccc(/C=C/c2nc3ccccc3n2S(=O)(=O)c2ccc(Br)cc2)cc1,active: 3.16 µM,
CC(C)C(=O)Nc1cccc(-c2cn3ccsc3n2)c1,"inconclusive: 20 µM [cytotoxic, partial curve]",
Cc1ccc(NC(=O)Cn2cc(C(=O)c3ccco3)c3ccccc32)cc1C,inactive,
C[C@H](CO)NC(=O)[C@@H]1C[C@H]1[C@@H](NP(=O)(c1ccccc1)c1ccccc1)c1ccccc1,inactive,
Cc1cc(C)c2oc(-c3ccc(NC(=O)COc4ccccc4C)cc3)nc2c1,"inconclusive: 25.1 µM [cytotoxic, single point]",

SMILES,Potency,"activity change, negative = cytotoxicity"
O=C(NCc1ccco1)c1ccc2ccccc2c1,"inconclusive: 15.8 µM [cytotoxic, single point]",
Cc1ccc(/C=C/C(=O)N2CCC(c3nc4ccccc4o3)CC2)cc1,inactive,
O=C(NCCCN1CCN(Cc2ccccc2)CC1)C1CCN(c2nnc(-n3cccc3)s2)CC1,"inconclusive: 12.6 µM [cytotoxic, single point]",
CN(c1ccc(C(=O)N2CCc3ccccc3C2)cc1)S(C)(=O)=O,"inconclusive: 35.5 µM [cytotoxic, single point]",
CCNc1ncc2nc(CCc3ccccc3)c(=O)n(-c3ccccc3)c2n1,inactive,
c1ccc2oc(-c3ccc4nc[nH]c4c3)nc2c1,"inconclusive: 11.2 µM [cytotoxic, partial curve]",
O=C(O)c1cccc([N+](=O)[O-])c1,"inconclusive: 0.316 µM [cytotoxic, single point]",
COC(=O)c1ccc2c(=O)n(CCCCCC(=O)N3CCN(c4cc(C)ccc4C)CC3)c(=O)[nH]c2c1,active: 15.8 µM,
CCc1cccc(NC(=O)CSc2nc3ccccc3nc2N2CCCCC2)c1,"inconclusive: 0.794 µM [cytotoxic, full curve]",
CNC(=O)CCCN1C(=O)CCn2nc(-c3cn(C)c4ccccc34)cc21,inactive,
CCCNC(=O)CSc1c2c(nc3ccc(Cl)cc13)CCCC2,"inconclusive: 25.1 µM [cytotoxic, single point]",
O=C(Cn1c(=O)n(Cc2ccccc2)c(=O)c2sc3ccccc3c21)Nc1ccccc1,"inconclusive: 12.6 µM [cytotoxic, single point]",
O=S(=O)(c1ccc2c(c1)OCCO2)N1CCC(O)(c2ccc(Cl)cc2)CC1,inactive,
COc1ccc(Nc2oc(COc3ccccc3F)nc2C#N)cc1,"inconclusive: 31.6 µM [cytotoxic, single point]",
CCN(CC)c1ccc(/C=N/NC(=O)c2ccc(O)cc2)cc1,"inconclusive: 12.6 µM [cytotoxic, partial curve]",
Cc1cc(Cl)ccc1OCC(=O)N1CCC(c2nc3ccccc3s2)CC1,"inconclusive: 35.5 µM [cytotoxic, single point]",
O=C(Nc1cccc(-c2nc3ccccc3o2)c1)C(F)(F)F,"inconclusive: 10 µM [cytotoxic, partial curve]",
O=C(Nc1ccc(Cc2ccncc2)cc1)c1ccco1,"inconclusive: 12.6 µM [cytotoxic, single point]",
Cc1ccc(NC(=O)CC2Sc3ccc(C(F)(F)F)cc3NC2=O)cc1 (stereo not drawn),inactive,
Cc1cccc2cc(CN(CCCO)C(=O)Nc3cccc(Cl)c3)c(=O)[nH]c12,"inconclusive: 31.6 µM [cytotoxic, single point]",
Cc1ccc2nc(-c3cc(NC(=O)COc4ccc(C)c(C)c4)ccc3Cl)oc2c1,"inconclusive: 12.6 µM [cytotoxic, partial curve]",
Cn1c(NCc2ccco2)nc2ccccc21,inactive,
CC(=O)c1cccc(NS(=O)(=O)c2cc3c(cc2C)N(C(C)=O)CCO3)c1,"inconclusive: 25.1 µM [cytotoxic, single point]",
Cc1nc2cc(NC(=O)Nc3nccs3)ccc2n1C,active: 7.94 µM,
CN(C)c1cccc(C(=O)Nc2cccc(F)c2)c1,"inconclusive: 12.6 µM [cytotoxic, partial curve]",

SMILES,Potency,"activity change, negative = cytotoxicity"
COc1ccc(C(=O)COC(=O)CN2CC(=O)Oc3ccccc32)cc1Br,"inconclusive: 12.6 µM [cytotoxic, partial curve]",
Cc1nc(N2CCOCC2)c2nc(-c3ccccc3)n(CCCN3CCOCC3)c2n1,inactive,
CCOC(=O)C1CCCN(Cc2ccc(OC)cc2OC)C1 (stereo not drawn),inactive,
CC1CCCN(CCCNC(=O)c2ccc3c(c2)N(Cc2ccc(Cl)cc2)C(=O)c2ccccc2S3(=O)=O)C1 (stereo not drawn),"inconclusive: 12.6 µM [cytotoxic, single point]",
COc1ccc(NC(=O)c2ccc(NC(=O)N3CCSc4ncccc43)cc2)cc1,"inconclusive: 7.94 µM [cytotoxic, full curve, poor fit]",
Cc1ccc2cc3cc(C(=O)N4CCCCCC4)oc3nc2c1,active: 10 µM,
Cc1cccn2cc(-c3cccc(NC(=O)C(C)C)c3)nc12,"inconclusive: 12.6 µM [cytotoxic, single point]",
CCn1c(=O)cc(OCC(=O)N2CCN(c3ccc(C)cc3)C(C)C2)c2ccccc21 (stereo not drawn),"inconclusive: 31.6 µM [cytotoxic, single point]",
CC1CCC(NC(=O)c2ccc(CS(=O)(=O)c3ccc(Cl)cc3)o2)CC1 (stereo not drawn),inactive,
O=C(Nc1ccc2nsnc2c1)c1ccc2c(c1)OCO2,"inconclusive: 6.31 µM [cytotoxic, full curve]",
c1ccc(-c2nnc(-c3ccccn3)nn2)nc1,"inconclusive: 15.8 µM [cytotoxic, single point]",
Nc1nc2c(s1)CCc1c-2cnn1-c1ccccc1,active: 12.6 µM,
O=C(NCCOc1ccccc1)c1ccc2c(c1)OCO2,"inconclusive: 15.8 µM [cytotoxic, single point]",
Cn1cc(-c2nc3cnc(N4CCNCC4)nc3n(C3CC3)c2=O)c2ccccc21,"inconclusive: 20 µM [cytotoxic, single point]",
CSc1ncc(Cl)c(C(=O)Nc2ccc(S(=O)(=O)Nc3nccc(C)n3)cc2)n1,"inconclusive: 7.94 µM [cytotoxic, partial curve]",
CC1(C)C(=O)C=C[C@@]2(C)C1C=C[C@@]1(C)C2CC[C@@]2(C)C(c3ccoc3)OC(=O)C3OC312 (stereo partly drawn),"inconclusive: 20 µM [cytotoxic, single point]",
OCCNc1nc(Nc2ccccc2)nc2ccccc12,inactive,
Cc1c(C(=O)NCc2cccnc2)oc2ccc(S(=O)(=O)N3CCCCC3)cc12,"inconclusive: 31.6 µM [cytotoxic, partial curve]",
CCOc1ccc(NC(=O)Nc2cc(C)ccc2OC)cc1,"inconclusive: 12.6 µM [cytotoxic, single point]",
Cc1cccc(CS(=O)(=O)c2ncc(Cl)c(C(=O)Nc3nnc(C(C)C)s3)n2)c1,active: 15.8 µM,
CC(C)NC(=O)c1ccc(Cn2c(SCc3ccc(F)cc3)nc3cccnc32)cc1,"inconclusive: 3.55 µM [cytotoxic, full curve, poor fit]",
COc1ccc(C2=CC(c3cc(Br)ccc3F)n3c(nc4ccccc43)N2)cc1 (stereo not drawn),active: 15.8 µM,
Cc1nnc(SCCn2c(N3CCN(c4ccccc4)CC3)nc3c2c(=O)n(C)c(=O)n3C)s1,"inconclusive: 31.6 µM [cytotoxic, single point]",
